Assay results reported in PubChem BioAssay AID1347165 (National Center for Advancing Translational Sciences (NCATS), 2019).
Where “and” joins values, the source holds several entries; their conditions need not be identical. Identical values can stand only once. Hit rate of the full screen: of about 220,000 compounds, about 5,700 (2.6%) were called active. Inconclusive means that the source gave no clear call. Such entries were picked first, then a sample of the others. Calls follow the shape of the dose curve; as a rule, active = well fitted inhibition curve with a large enough effect; inconclusive = small, poorly fitted or top-dose-only effect; inactive = no such curve, though single readings can be large or run the other way. Potencies beside an inconclusive call are fits to weak or partial responses and may not hold up.

molecular target: Lysine-specific demethylase 5B (Homo sapiens) (UniProt Q9UGL1); experiment: Primary screen for KDM5B Histone Demethylases FDH-coupled qHTS; conditions: FDH-coupled NADH fluorescence (FDH is formaldehyde dehydrogenase); series mostly up to 57.7 µM; also: nearly all actives have a fitted effect of over 70% in size
How it was run: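 Measured: NADH fluorescence change, 30 min, RT. System: KDM5BΔAP 200 nM final, H3K4me3 peptide, α-KG, Fe(II), ascorbate, NAD⁺ plus FDH, pH 7.5 HEPES. Compounds: titrated, 10 min pre-incubation with enzyme.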
Potency is read from the fitted curve at half-maximal effect; tags tell the direction and shape of the fitted curve.

Sequence of UniProt Q9UGL1 (Q9UGL1 whole entry, looked up): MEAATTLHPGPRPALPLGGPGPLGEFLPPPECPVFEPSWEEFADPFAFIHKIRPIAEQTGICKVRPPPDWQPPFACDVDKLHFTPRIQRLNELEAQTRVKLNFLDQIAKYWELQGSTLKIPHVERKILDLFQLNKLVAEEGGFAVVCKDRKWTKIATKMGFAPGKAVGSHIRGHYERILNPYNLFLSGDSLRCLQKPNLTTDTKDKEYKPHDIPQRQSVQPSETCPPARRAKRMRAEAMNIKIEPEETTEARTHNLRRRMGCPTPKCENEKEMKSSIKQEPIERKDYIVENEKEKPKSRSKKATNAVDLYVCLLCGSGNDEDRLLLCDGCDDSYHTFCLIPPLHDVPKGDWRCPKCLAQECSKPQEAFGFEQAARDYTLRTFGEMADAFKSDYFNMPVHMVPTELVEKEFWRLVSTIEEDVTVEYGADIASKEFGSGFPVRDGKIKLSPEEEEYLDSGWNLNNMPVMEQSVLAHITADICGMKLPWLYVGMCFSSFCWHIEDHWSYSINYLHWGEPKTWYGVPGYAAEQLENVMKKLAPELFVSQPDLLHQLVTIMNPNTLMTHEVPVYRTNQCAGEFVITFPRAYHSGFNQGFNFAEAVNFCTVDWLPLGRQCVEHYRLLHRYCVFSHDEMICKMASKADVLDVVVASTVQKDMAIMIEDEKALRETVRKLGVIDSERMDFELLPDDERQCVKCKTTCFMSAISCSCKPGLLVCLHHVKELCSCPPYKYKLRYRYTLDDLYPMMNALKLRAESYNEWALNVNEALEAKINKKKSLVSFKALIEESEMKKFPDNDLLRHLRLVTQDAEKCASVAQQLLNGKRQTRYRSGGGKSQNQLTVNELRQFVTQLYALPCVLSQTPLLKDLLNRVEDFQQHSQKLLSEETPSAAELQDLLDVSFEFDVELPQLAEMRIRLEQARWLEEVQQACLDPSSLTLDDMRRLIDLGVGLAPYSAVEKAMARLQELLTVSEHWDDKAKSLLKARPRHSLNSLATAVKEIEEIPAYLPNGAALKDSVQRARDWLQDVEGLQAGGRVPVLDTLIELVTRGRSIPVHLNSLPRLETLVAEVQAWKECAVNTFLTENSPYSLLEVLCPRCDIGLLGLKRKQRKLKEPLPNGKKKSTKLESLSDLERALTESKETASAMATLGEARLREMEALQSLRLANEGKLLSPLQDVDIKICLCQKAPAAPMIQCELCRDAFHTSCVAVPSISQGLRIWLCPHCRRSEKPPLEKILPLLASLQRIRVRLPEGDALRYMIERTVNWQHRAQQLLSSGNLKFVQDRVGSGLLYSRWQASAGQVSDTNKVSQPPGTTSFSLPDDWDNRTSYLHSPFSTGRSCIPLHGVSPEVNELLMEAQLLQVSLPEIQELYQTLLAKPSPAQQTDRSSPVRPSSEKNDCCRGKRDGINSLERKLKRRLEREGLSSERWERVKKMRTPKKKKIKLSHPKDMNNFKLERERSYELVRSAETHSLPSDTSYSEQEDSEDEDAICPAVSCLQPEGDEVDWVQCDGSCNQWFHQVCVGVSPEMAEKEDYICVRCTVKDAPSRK

SMILES | Potency
CCCNC(=O)c1ccc2[nH]c(C)c(C)c2c1 | inactive
NC(=O)C1CCN(c2cc(-c3noc([C@@H]4CCCN4Cc4ccccc4F)n3)ccn2)CC1 | inconclusive: 28.2 µM [inhibitor, partial curve, poor fit]
Cc1ccc(-n2cccc2CC(=O)N2CCCC(C)C2)cc1 (centres undefined) | inconclusive: 35.5 µM [inhibitor, partial curve, poor fit]
COc1ccc(NC(=O)C2CC(=O)N/C(=N/N=C/c3ccco3)S2)cc1 (centres undefined) | inconclusive: 39.8 µM [inhibitor, single point]
CCOc1ccc(-c2cc(C(=O)Oc3ccc(C#N)cc3)no2)cc1 | inconclusive: 1.58 µM [inhibitor, full curve, poor fit]
COc1cc(OC)cc(-c2cc3nc4c(c(N5CCN(c6cnccn6)CC5)n3n2)CCCC4)c1 | inconclusive: 22.4 µM [inhibitor, partial curve, poor fit]
Cc1ccc(NC(=O)c2ccc3c(c2)N(C)C2CCCCCN2C3=O)c(F)c1 (centres undefined) | inconclusive: 20 µM [inhibitor, partial curve, poor fit]
COc1ccc(/C=C/c2nc(C#N)c(NCc3ccc(F)cc3)o2)cc1OC | inconclusive: 14.1 µM [inhibitor, partial curve, poor fit] and inconclusive: 25.1 µM [inhibitor, partial curve, poor fit]
Cc1ccccc1Nc1c(-c2cc(Br)ccc2F)nc2ccccn12 | inconclusive: 2 µM [inhibitor, full curve, poor fit]
CCCc1noc(-c2ccn3c(CNC(=O)c4c(F)cccc4F)nnc3c2)n1 | active: 28.2 µM
COc1ccc(NCc2nc3scc(-c4cccs4)c3c(=O)[nH]2)cc1 | inactive
CCOC(=O)C1CCC(CN(Cc2ccccc2)S(=O)(=O)c2ccc(Br)cc2)CC1 (centres undefined) | inactive
COCCN1C(=O)CS(=O)C12CCN(C(=O)Nc1ccc3c(c1)OCCO3)CC2 (centres undefined) | inactive
Cc1nc2c(c(-c3ccc(O)cc3)n1)CN(Cc1ccc(N(C)C)cc1)CCC2 | inactive
Cc1ccc(OCc2nc(C3CN(C(=O)c4ccc5nc[nH]c5c4)C3)no2)cc1 | inactive
N#Cc1cccc(S(=O)(=O)NCC(=O)O)c1 | inactive
COc1ccc(/C=N/OCC(=O)OCC(=O)c2ccc(Cl)cc2)cc1 | inactive
O=C(c1ccccc1F)N1CCCC2(C1)NC(=O)N(Cc1ccc(Cl)cc1)C2=O (centres undefined) | inactive
O=C(c1ccc2c(c1)OCO2)N1CCn2c(nnc2-c2ccncc2)C1 | inconclusive: 35.5 µM [inhibitor, partial curve]
Cc1ccc(NC(=O)c2nn(C)c3c2CCc2sccc2-3)cc1F | inconclusive: 39.8 µM [inhibitor, single point]
CN(C)C[C@@H]1CN(C)C[C@H]1NC(=O)c1cc(F)ccc1F | inactive
O=C(NCc1nnc2c(-c3nc(C4CC4)no3)cccn12)c1cccnc1 | active: 25.1 µM

SMILES | Potency
COc1ccc(NC(=O)N[C@H]2CO[C@H]3[C@@H]2OC[C@@H]3n2nnnc2Oc2ccccc2)cc1 | inactive
CCCOc1ccc(-c2[nH]nc3c2C(c2cc(OC)c(OC)c(OC)c2)C(C#N)=C(N)O3)cc1 (centres undefined) | inconclusive: 14.1 µM [inhibitor, partial curve, poor fit]
CC(C)NC(=O)c1cc(Br)c(Br)s1 | inactive
COc1ccccc1Cn1c(CNS(=O)(=O)c2ccc(C(C)C)cc2)nc2cccnc21 | inconclusive: 25.1 µM [inhibitor, single point]
CN1C(=O)c2cccn2CC1CNC(=O)Cc1c[nH]c2ccccc12 (centres undefined) | inactive
CCCN1CCCCC12Cc1ccccc1CN([S+](C)(=O)[O-])C2 (centres undefined) | inconclusive: 50.1 µM [inhibitor, partial curve, poor fit]
O=C(NCc1ccc(Cl)cc1)c1cccn2nccc12 | active: 35.5 µM
COc1ccc(NC(=O)Cc2c(Cl)cccc2Cl)cc1S(N)(=O)=O | inactive
O=C1/C(=C/C=C/c2ccccc2)Oc2c1ccc(O)c2CN1CCN(CCO)CC1 | inconclusive: 31.6 µM [inhibitor, single point]
Cc1ccc(NC(=O)c2cc(Cl)ccc2Cl)nc1 | inactive
Fc1ccc(-c2nn(-c3ccccc3Cl)c3c2cnc2ccccc23)cc1 | inconclusive: 31.6 µM [inhibitor, single point]
Cc1ccc2onc(CC(=O)N3CCN(c4cc(Cl)ccc4C)CC3)c2c1 | inconclusive: 2.51 µM [inhibitor, partial curve, poor fit]
COc1cc2c(cc1OC)C(c1ccccc1)N(CC(O)CO)CC2 (centres undefined) | inconclusive: 28.2 µM [inhibitor, single point]
O=C(NCc1cccc(F)c1)c1cc2c(s1)CCN(C(=O)c1ccccc1)C2 | inactive
CN(C)c1cccc(Oc2nnnn2[C@H]2CO[C@H]3[C@@H]2OC[C@@H]3NC(=O)Nc2cccc3ccccc23)c1 | inconclusive: 28.2 µM [inhibitor, single point]
CCN1CCN(C[C@@H]2CN(Cc3ccccc3OC(F)F)C[C@@H]2CO)CC1 | inconclusive: 17.8 µM [inhibitor, partial curve, poor fit]
COc1ccc(N(C)S(=O)(=O)c2cccc(C(=O)Nc3nc4ccccc4[nH]3)c2)cc1 | inconclusive: 39.8 µM [inhibitor, single point]
Cc1ccc2nc(-c3ccc(Cl)s3)cc(C(=O)O)c2c1 | inconclusive: 22.4 µM [inhibitor, partial curve, poor fit]
CCCCCn1c(CCNC(=O)c2ccc(F)cc2)nc2ccccc21 | inconclusive: 12.6 µM [inhibitor, partial curve, poor fit]
O=C(NCc1c[nH]c2ncccc12)c1ccc2ccccc2n1 | inactive
COc1ccc(N2CCN(C(=O)CCc3ccnc(N4CCOCC4)c3)CC2)cc1 | inconclusive: 17.8 µM [inhibitor, partial curve, poor fit]
CC(NC(=O)c1ccc2c(c1)NC(=O)CS2)c1ccc2c(c1)CC(=O)N2 (centres undefined) | inactive
